# Values joined by “and” are separate entries in the source; they are usually repeats but may differ in a detail not shown here. Equal entries are not always repeated. Screen size: about 230,000 compounds; about 1,500 (0.65%) were called active. Inconclusive results, whose numbers are uncertain, are shown with a selection of clear calls. The call rests on the fitted dose curve; in most records, active means well fitted inhibition curve with a large enough effect; inconclusive means small, poorly fitted or top-dose-only effect; inactive means no such curve, though single readings can be large or run the other way. Potencies of inconclusive entries are doubtful fits and often do not repeat.
# Target: Lethal(3)malignant brain tumor-like protein 1 (Homo sapiens) (UniProt Q9Y468)
# Assay: qHTS Assay for the Inhibitors of L3MBTL1; further: nearly all actives have a fitted effect of over 60% in size
# Details: AlphaScreen L3MBTL1–H3K9me1 peptide binding; activity, negative = inhibition: at 57.1 µM (top of the series)
# Source text: The histone code is comprised of many post-translational modifications that occur mainly in histone tail peptides. The identity and location of these marks are read by a variety of histone binding proteins that are emerging as important regulators of cellular differentiation and development and are increasingly being implicated in numerous disease states. Small molecule probes that disrupt the interaction between histone binding proteins and chromatin would enable a systematic chemical biology study of proteins that read the histone code and could potentially reveal new targets for drug discovery. However, no such small molecules are known. This dearth of quality molecular probes can largely be attributed to the novelty of the target class and the lack of screening assays. This proposal details the development of the first high-throughput screening assay for the discovery of inhibitors of methyl-lysine binding proteins and how it can be be used to initiate a full-scale discovery effort for antagonists of histone binding proteins. Specifically, this work focuses on an AlphaScreen(tm)-based HTS assay for Malignant Brain Tumor (MBT) domain-containing proteins, which bind to the lower methylation states of lysine residues present in histone tail peptides.
# To each well, 2 uL of L3MBTL1 protein (final 50 nM) and 1 uL biotinylated histone peptide monomethylated at Lys9 [b-AHA-H3(1-15)K9me1] (final 75 nM) was added using a nanoliter dispenser. Formation of a protein-peptide complex proceeded at room temperature for 30 min. A Kalypsys pin-tool was employed to transfer 23 nL of library compound solution in DMSO to each well. Cefsulodin, found in a pilot screen of the LOPAC library to be a weak inhibitor of L3MBTL1 binding, was used as an intraplate control with a 16-point titration in duplicate. Following a 30 min incubation of the protein-peptide complex with compounds at room temperature, a mixture of 40 ug/mL each streptavidin-coated donor and nickel chelate acceptor AlphaScreen beads (final 10 ug/mL) was added in a 1 uL dispense for a final volume of 4 uL. Plates were incubated, protected from the light for 30 min at room temperature. Microplates were then be read on an EnVision multilabel plate reader using the 1,536 plate HTS AlphaScreen aperture (excitation time 80 ms, measurement time 240 ms).
# On the % scale 0 is the no-effect control and ±100 the full control effect; potency means the concentration at half of the fitted maximal effect; tags describe the fitted curve by direction and shape.
# Chain of UniProt Q9Y468 (Q9Y468 whole entry, looked up): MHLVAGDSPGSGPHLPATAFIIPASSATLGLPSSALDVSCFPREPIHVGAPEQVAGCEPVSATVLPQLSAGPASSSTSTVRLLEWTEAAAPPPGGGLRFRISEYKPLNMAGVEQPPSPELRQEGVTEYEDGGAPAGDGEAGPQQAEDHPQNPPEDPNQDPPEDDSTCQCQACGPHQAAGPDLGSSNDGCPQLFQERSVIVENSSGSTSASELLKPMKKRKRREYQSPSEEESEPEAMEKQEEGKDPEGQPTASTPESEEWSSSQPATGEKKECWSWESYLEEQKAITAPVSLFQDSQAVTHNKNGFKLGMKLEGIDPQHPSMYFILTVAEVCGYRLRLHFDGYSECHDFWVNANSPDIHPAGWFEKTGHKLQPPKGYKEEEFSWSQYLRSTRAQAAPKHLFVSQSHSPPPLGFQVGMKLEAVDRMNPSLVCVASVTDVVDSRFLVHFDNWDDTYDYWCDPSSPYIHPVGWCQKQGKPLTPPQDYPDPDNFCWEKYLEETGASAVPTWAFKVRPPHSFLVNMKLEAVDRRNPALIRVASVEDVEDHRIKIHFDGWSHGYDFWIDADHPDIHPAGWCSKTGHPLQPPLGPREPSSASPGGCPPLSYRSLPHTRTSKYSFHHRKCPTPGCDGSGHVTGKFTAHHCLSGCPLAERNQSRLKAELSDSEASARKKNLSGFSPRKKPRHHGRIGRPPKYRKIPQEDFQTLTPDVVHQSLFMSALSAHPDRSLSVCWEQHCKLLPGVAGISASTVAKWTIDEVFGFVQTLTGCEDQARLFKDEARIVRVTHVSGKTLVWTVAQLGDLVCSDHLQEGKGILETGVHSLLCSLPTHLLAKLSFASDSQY
Structure (SMILES),Potency,"activity, negative = inhibition"
Cc1cc(C(=O)N/N=C/c2cc([N+](=O)[O-])cc(C)c2O)n[nH]1,active: 22.4 µM,
CCCCn1c(N)c(N(CC(C)C)C(=O)C2CC(=O)N(c3ccccc3C(C)CC)C2)c(=O)[nH]c1=O (stereo not given),,inactive: 9.35%
COc1cc(/C=C2\SC(c3ccc(C)cc3)=NC2=O)cc(OC)c1O,"inconclusive: 17.8 µM [inhibitor, partial curve]",
Cc1ccc(/C=C2\SC(=S)N(CC3CCCO3)C2=O)o1 (stereo not given),"inconclusive: 14.1 µM [inhibitor, partial curve]",
CC[C@]1(c2ccccc2)C(=O)N(C(=O)OC)N1C(=O)OC,,inactive: 17%
COc1ccc(Cl)cc1NC(=O)COC(=O)CCCN1C(=O)c2ccccc2C1=O,"inconclusive: 39.8 µM [inhibitor, single point]",
S=C(Nc1cccc(Cl)c1)Nc1cccc2cnccc12,"inconclusive: 14.1 µM [inhibitor, partial curve]",
COc1ccc(CNC(=O)C[C@H]2C[C@H](C(=O)N(C(C)C)C(C)C)[C@@]3(C)c4[nH]c5cc(-c6ccco6)ccc5c4CCN3C2=O)cc1OC,"inconclusive: 25.1 µM [inhibitor, partial curve]",
O=C(NN1C(=O)NC2(CCCCC2)C1=O)c1ccc(-c2ccccc2Cl)o1,,inactive: -10.6%
O=C(CSc1nc2ccccc2s1)NC(=O)NCc1ccco1,"inconclusive: 39.8 µM [inhibitor, single point]",
Oc1ccccc1/C=N/c1c(-c2ccco2)nc2ccccn12,"inconclusive: 31.6 µM [inhibitor, single point]",
O=C(CSc1nc(-c2ccccc2)nc2ccc(F)cc12)Nc1ccc(C(=O)O)cc1,active: 39.8 µM,
Cc1cc(C=O)c(C)n1-c1cc(C(=O)O)cc(C(=O)O)c1,active: 5.01 µM,
CCN(C(=O)Cc1nc(N)n[nH]1)C1(C(=O)Nc2ccccc2)CCCCC1,active: 11.2 µM,
COc1ccc(C(=O)Nc2nc(-c3ccc([N+](=O)[O-])cc3)c(-c3ccc(OC)cc3)s2)cc1,"inconclusive: 4.47 µM [inhibitor, single point]",
O=C(NC(Cc1ccccc1)C(=O)O)/C(=C\c1ccco1)NC(=O)c1ccc(Br)cc1 (stereo not given),"inconclusive: 35.5 µM [inhibitor, single point]",
CCc1sc(C(=O)NCCc2ccc(S(N)(=O)=O)cc2)cc1Br,,inactive: 5.41%
N#CC1=C(SCc2ccccc2)NC(=O)CC1c1ccco1 (stereo not given),"inconclusive: 35.5 µM [inhibitor, single point]",
Cc1ccc(-n2nc(C)c3c2OC(N)=C(C#N)C3c2ccco2)cc1 (stereo not given),"inconclusive: 39.8 µM [inhibitor, single point]",
CC(C)(C)NC(=O)Cn1c(SCC(N)=O)nc2ccccc21,,inactive: 4.65%
Cc1ccc(Nc2nc(N)nc(CSC(=S)N3CCN(c4ccccc4)CC3)n2)cc1,"inconclusive: 7.08 µM [inhibitor, single point]",
CCOc1cc(NC(=O)c2ccccc2C(=O)O)c(OCC)cc1NC(=O)c1ccccc1F,"inconclusive: 25.1 µM [inhibitor, single point]",
CCN(CC(=O)NCc1ccccn1)S(=O)(=O)c1ccc(Cl)cc1,,inactive: 9.41% [at 11.4 µM]
O=C(CC1C(=O)Nc2ccccc2N1CC(=O)N1CCCC1)Nc1ccc(Br)cc1 (stereo not given),,inactive: 1.2%

Structure (SMILES),Potency,"activity, negative = inhibition"
Cc1cc(C(=O)CN2c3cccc4cccc(c34)S2(=O)=O)c(C)n1C,"inconclusive: 39.8 µM [inhibitor, single point]",
CCc1ccc(OCCOCCN2CCN(C)CC2)cc1,,inconclusive: -63.8% [inhibitor]
Cc1nc2ncccn2c1-c1csc(Nc2ccc(N(C)C)cc2)n1,"inconclusive: 25.1 µM [inhibitor, partial curve]",
COc1cc(/C=C2/C(=O)N(c3ccc(C)c(C)c3)N=C2C)cc([N+](=O)[O-])c1O,,inactive: -2.18% [at 2.29 µM]
C1=CC2c3ccccc3NC(c3ccncc3)C2C1 (stereo not given),"inconclusive: 39.8 µM [inhibitor, single point]",
COc1ccc(OC)c(NC(=O)C(=S)NC2CCCCC2)c1,"inconclusive: 28.2 µM [inhibitor, partial curve]",
O=C(NN(C(=O)c1ccccc1)c1ccccc1)c1ccccc1,"inconclusive: 28.2 µM [inhibitor, partial curve]",
CCC1=NN(C(=O)c2cccc(Br)c2)C(O)(c2ccc(Br)cc2)C1 (stereo not given),active: 28.2 µM,
Cc1ccc(OCC(=O)c2c(N)n(C)c(=O)n(C)c2=O)c([N+](=O)[O-])n1,active: 7.94 µM,
O=C(C1Cc2ccccc2CN1C(=O)c1ccccc1)N1CCN(c2ccccc2)CC1 (stereo not given),"inconclusive: 28.2 µM [inhibitor, single point]",
Cc1ccccc1C(=O)Nc1cccc(NC(=O)c2ncn[nH]2)c1,"inconclusive: 10 µM [inhibitor, partial curve]",
COc1cc(NC(=O)COC(=O)CO/N=C(\C)c2ccc3c(c2)OCO3)cc(OC)c1OC,,inactive: 24.4%
COc1ccc(CN2CCc3c([nH]c4ccccc34)C2)cc1Br,,inactive: -4.02%
COc1ccccc1C/C(N)=N/OC(=O)c1ccc2c(c1)OCO2,"inconclusive: 0.112 µM [inhibitor, full curve, poor fit]",
Cc1ccc(C)n1-c1sc2c(c1C(=O)O)CCCC2,"inconclusive: 31.6 µM [inhibitor, single point]",
COc1cnn(-c2ccccc2)c(=O)c1SCc1ccc(Cl)cc1Cl,,inactive: 11.6%
COc1cccc(CNC(=O)CCC2CCCN(C(=O)c3cc(C)[nH]n3)C2)c1 (stereo not given),"inconclusive: 6.31 µM [inhibitor, single point]",
CCNC(=S)N(Cc1cccs1)Cc1cc2cc(OCC)ccc2[nH]c1=O,,inactive: 3.74%
C=CCOc1ccc(/C=N/NC(=O)CN2CCCCC2)cc1OC,"inconclusive: 28.2 µM [inhibitor, partial curve]",
CN1CCN(C2CCN(Cc3ccc(O)c4ncccc34)CC2)CC1,active: 22.4 µM and active: 14.1 µM,
O=C(/C=C/c1cccs1)N1CCc2ccccc21,"inconclusive: 0.708 µM [inhibitor, single point]",
CC12CCC(C(=O)N(CSC(=S)N/N=C\c3ccccc3)C1=O)C2(C)C (stereo not given),"inconclusive: 20 µM [inhibitor, single point]",
CC1(C)Cc2c(sc3nc(-c4ccccc4)n(N)c(=O)c23)CO1,,inactive: 9.96%
O=C(NCC1(N2CCCCC2)CCCCC1)C1CC(=O)N(c2ccc3c(c2)OCCO3)C1 (stereo not given),"inconclusive: 10 µM [inhibitor, partial curve]",

Structure (SMILES),Potency,"activity, negative = inhibition"
COc1cccc(-n2sc3c(c2=S)-c2cc(OC)ccc2NC3(C)C)c1,"inconclusive: 25.1 µM [inhibitor, partial curve]",
Nc1ccc(Oc2ccc3nc(-c4ccccc4)c(-c4ccc([N+](=O)[O-])cc4)nc3c2)cc1,"inconclusive: 31.6 µM [inhibitor, single point]",
O=C(NC1CCCCC1)C(c1ccc(O)c(O)c1)N(C(=O)Cn1nnc2ccccc21)c1cccc(O)c1 (stereo not given),"inconclusive: 0.891 µM [inhibitor, single point]",
O=C(Cc1ccccc1)NNC(=S)NC(=O)c1cccnc1,,inactive: -1.35%
COc1ccc(/C=N/NC(=O)c2[nH]ncc2Br)c(OC)c1,"inconclusive: 6.31 µM [inhibitor, single point]",
CC(C)(C)C1CCC(=NNc2ccc(S(N)(=O)=O)cc2[N+](=O)[O-])CC1 (stereo not given),,inactive: -12.4%
O=[N+]([O-])c1nn(-c2ccc3c(c2)OCCO3)n(O)c1=NCCC1=CCCCC1,"inconclusive: 17.8 µM [inhibitor, partial curve]",
CCN(CCCNC(=O)CC(C(=O)N1CCc2ccccc21)n1ccnc1)c1cccc(C)c1 (stereo not given),,inactive: -61.7%
Cc1ccc(N2CCN(C(=O)c3ccccc3)CC2)c(C)c1,,inactive: 8%
CSCSC1=C(C#N)C(c2ccccc2Cl)C(C(C)=O)=C(C)N1 (stereo not given),,inactive: 8.91%
Cc1cc(C)cc(OCC(=O)Nc2ccc3c(c2)OCO3)c1,,inactive: -8.85%
O=C(NC(NCc1ccccn1)(C(F)(F)F)C(F)(F)F)c1ccco1,"inconclusive: 35.5 µM [inhibitor, single point]",
COC(=O)c1ccc(Sc2ccc(Cl)cc2)c(N)c1,"inconclusive: 39.8 µM [inhibitor, single point]",
CCCCN=C1CC(C)(C)CC(=O)/C1=C(/O)CCCN1C(=O)c2ccccc2C1=O,"inconclusive: 39.8 µM [inhibitor, single point]",
N#C/C(=C\c1ccc(O)c(O)c1)C(=O)N1CCc2ccccc21,"inconclusive: 12.6 µM [inhibitor, partial curve, poor fit]",
Cc1cccc2sc(NNC(=O)c3cc(-c4cccs4)nc4ccccc34)nc12,"inconclusive: 3.55 µM [inhibitor, full curve]",
O=C(NNC(=O)c1cc2cc3ccccc3nc2s1)c1ccc(F)cc1,,inactive: 33.7%
Cc1ccccc1Nc1c(N)c(=O)oc2ccccc12,"inconclusive: 6.31 µM [inhibitor, single point]",
O=C(/C=C/c1ccc(F)cc1)NCCc1ccc2c(c1)OCCO2,,inactive: -0.54%
N#C/C(=C\c1coc2ccccc2c1=O)C(N)=S,"inconclusive: 0.631 µM [inhibitor, full curve, poor fit]",
C/C(=N/NC(=O)CNc1ccc(C)cc1)c1ccc(Br)s1,"inconclusive: 28.2 µM [inhibitor, single point]",
O=C(CCCN1C(=O)c2ccccc2C1=O)N1CCN(c2ccccn2)CC1,"inconclusive: 35.5 µM [inhibitor, single point]",

# Source: PubChem BioAssay AID485360 (National Center for Advancing Translational Sciences (NCATS), 2010)
